PubChem BioAssay AID686979 (National Center for Advancing Translational Sciences (NCATS), 2013)
Where “and” joins values, the source holds several entries; their conditions need not be identical. Equal entries are not always repeated. In all, about 420,000 compounds went through this assay and about 50,000 (12%) were called active. The inconclusive results got no clear call from the source; some entries with a clear call stand among them for comparison. Calls follow the shape of the dose curve; as a rule, active = well fitted inhibition curve with a large enough effect; inconclusive = small, poorly fitted or top-dose-only effect; inactive = flat fitted curve, though single readings scatter. Potencies of inconclusive entries are doubtful fits and often do not repeat.

experiment: qHTS for Inhibitors of human tyrosyl-DNA phosphodiesterase 1 (TDP1): qHTS in cells in presence of CPT; details: chicken DT40 Tdp1-/-;hTDP1 cells + 20 nM CPT, ATP luminescence, 48 h; activity change, negative = growth inhibition: at 46.2 µM (top of the series) unless noted; also: nearly all actives have a fitted effect of over 55% in size
How it was run: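 Chicken DT40 Tdp1-/- cells stably complemented with human TDP1 were seeded at 400 cells/well in medium containing 20 nM camptothecin, exposed to pin-transferred compounds, and grown at 37 °C for at least 48 hr. Viability was read as ATP luminescence.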
% is scaled to controls: 0 for no effect and ±100 for the full control effect; potency is read from the fitted curve at half-maximal effect; tags tell the direction and shape of the fitted curve.

| SMILES | Potency | activity change, negative = growth inhibition |
| --- | --- | --- |
| COc1ccccc1N1CCN(C(=O)CN(c2cc(C)cc(C)c2)S(C)(=O)=O)CC1 | inconclusive: 16.4 µM [inhibitor, single point] | – |
| COc1ccccc1N1CCN(S(=O)(=O)c2cc(C)sc2C)CC1 | inconclusive: 18.4 µM [inhibitor, single point] | – |
| COc1ccc2ccc(OC)c(/C=N/NC(=O)c3cc4ccccc4o3)c2c1 | inconclusive: 29.1 µM [inhibitor, single point] | – |
| Cc1csc(Sc2nc3c(c(=O)[nH]c(=O)n3C)n2CCCc2ccccc2)n1 | inconclusive: 23.1 µM [inhibitor, single point] | – |
| CCc1ccc(NS(=O)(=O)c2cc3c(cc2C)n(C)c(=O)c(=O)n3C)cc1 | active: 14.6 µM | – |
| Cc1nc(N2CCN(Cc3ccccc3)CC2)nc2c1C(=O)CCC2 | active: 23.1 µM | – |
| O=C(COC(=O)c1ccc(O)cc1O)Nc1cc(-c2ccccc2)nn1-c1ccccc1 | inconclusive: 16.4 µM [inhibitor, partial curve, poor fit] | – |
| COc1ccc(C(CNC(=O)C(=O)NC2CCCC2)N2CCN(C)CC2)cc1 (centres undefined) | – | inactive: 7.58% |
| COc1ccc(-n2cc(CNCCCn3ccnc3)c(-c3cccc(F)c3)n2)cc1 | inconclusive: 29.1 µM [inhibitor, single point] | – |
| O=c1oc2ccccc2c2c1ncn2CCN1CCOCC1 | – | inconclusive: -29.2% [inhibitor] |
| O=C(Nc1ccc(F)cc1F)c1ccc2c(c1)[nH]c(=O)n2Cc1ccc(F)cc1 | inconclusive: 11.6 µM [inhibitor, partial curve, poor fit] | – |
| CCCSC1=NC2(CCN(C(=O)NC3CCCCC3)CC2)N=C1c1ccccc1 | – | inactive: -1.49% |
| Cc1nc2ccc(C(=O)N3CCCC(CO)(Cc4ccc(F)cc4F)C3)cc2nc1C (centres undefined) | – | inactive: -24.8% |
| C[C@H](CO)N1C[C@H](C)[C@@H](CN(C)C(=O)Cc2ccccc2)OCCCC[C@H](C)Oc2ccc(NC(=O)NC3CCCCC3)cc2C1=O | inconclusive: 18.4 µM [inhibitor, single point] | – |
| O=C(Nc1ccc(Br)cn1)c1cnn2c1NC(=C1CC1)C=C2C(F)F | – | inactive: 0.552% |
| COc1ccc(OC)c(NC(=O)c2cccc(Cn3cc(Br)c([N+](=O)[O-])n3)c2)c1 | inconclusive: 29.1 µM [inhibitor, single point] | – |
| Cc1ccc(-c2ccc(=O)n(CC(=O)NCCCN3CCCCC3)n2)cc1 | – | inactive: -0.122% |
| CN(CC(=O)Nc1ccc(F)cc1)C(=O)c1cccc(S(=O)(=O)N2CCN(c3ccc(F)cc3)CC2)c1 | active: 14.6 µM | – |
| CCn1c(=O)c2c(n3c(=S)[nH]nc13)-c1ccccc1CC21CCCCC1 | – | inactive: -6.88% |
| CCCNC(=O)c1c(NC(=O)C2COc3ccccc3O2)sc2c1CCCC2 (centres undefined) | active: 11.6 µM | – |
| Cc1c(C(=O)OCC(C)C)[nH]c2c1C(=O)CC(c1ccco1)C2 (centres undefined) | active: 0.82 µM | – |
| O=C1C(=O)N(C2CCCC2)C(=O)N1Cc1c(F)cccc1Cl | – | inactive: 1.17% |
| CCOc1ccc(CCNC(=O)Nc2cccc(OC)c2)cc1OCC | inconclusive: 25.9 µM [inhibitor, single point] | – |

| SMILES | Potency | activity change, negative = growth inhibition |
| --- | --- | --- |
| CCCSc1ncc(Cl)c(C(=O)Nc2sc3c(c2C(=O)NCC)CCCC3)n1 | inconclusive: 35.5 µM [inhibitor, single point] and inconclusive: 18.4 µM [inhibitor, single point] | – |
| Cc1ccc(S(=O)(=O)NNC(=O)Nc2cccc(C)c2C)c(C)c1 | – | inactive: -10.1% |
| CCOc1ccc(OCCC(=O)OCC(=O)Nc2cc(OCC)c(N3CCOCC3)cc2OCC)cc1 | active: 18.4 µM | – |
| CCOc1cccc(/C=N/NC(=S)Nc2ccccc2[N+](=O)[O-])c1O | active: 9.2 µM | – |
| O=C(C1CCN(S(=O)(=O)c2ccc(Br)s2)CC1)N1CCCCC1 | inconclusive: 20.6 µM [inhibitor, single point] | – |
| COc1ccc(-c2nnc(SCC(=O)Nc3nc4ccccc4s3)n2C)cc1 | – | inactive: 0.898% |
| CC(=O)Nc1cccc(-c2cnc(N)c(C(=O)c3cccnc3)n2)c1 | active: 8.2 µM | – |
| Cc1cccc(C)c1NC(=O)COC(=O)c1cc(=O)c2ccccc2o1 | inconclusive: 29.1 µM [inhibitor, single point] | – |
| Cn1c(CBr)c(C(=O)c2ccc([N+](=O)[O-])cc2)c(=O)n(C)c1=O | – | inactive: -19.3% |
| COc1cc(C=CC(=O)c2cc(OC)c(OC)c(OC)c2)cc(OC)c1OC | active: 5.8 µM | – |
| CCOc1cc(/C=N\NC(=O)c2ccc(NC(=O)C(C)(C)C)cc2)ccc1OC(=O)c1cccc(C)c1 | active: 11.6 µM | – |
| COc1cccc(NC(=O)CN(Cc2ccccc2)S(=O)(=O)c2ccc3nc(C)sc3c2)c1 | inconclusive: 25.9 µM [inhibitor, single point] | – |
| N/C(=N\OC(=O)Cc1cccs1)c1ccc(Br)cc1 | – | inactive: -9.53% |
| Cc1ccc2nc(NC(=O)CSc3nc(=O)n(CCCN(C)C)c4c3CCC4)sc2c1 | active: 9.2 µM | – |
| COc1ccc(NC(=O)CSc2nccn2Cc2ccc(F)cc2)cc1 | inconclusive: 29.1 µM [inhibitor, single point] | – |
| S=C(NCCc1ccccc1)NC1CC2CCC(C1)N2Cc1ccccc1 (centres undefined) | inconclusive: 29.1 µM [inhibitor, single point] | – |
| Cc1nn(CCCC(=O)NCc2cccc(F)c2)c(=O)c2nn(-c3ccccc3)c(C)c12 | inconclusive: 11.6 µM [inhibitor, partial curve] | – |
| CC(C)OC(=O)c1c(NC(=O)c2cnn3c2NC(c2ccccc2)CC3C(F)(F)F)sc2c1CCCC2 (centres undefined) | inconclusive: 29.1 µM [inhibitor, single point] | – |
| Cc1ccc(N=C(N)N=C(N)N)c(C)c1 | – | inconclusive: -5.59% [inhibitor] |
| COc1ccc(S(=O)(=O)NCCS(=O)(=O)N2CCN(c3ccccc3)CC2)cc1 | inconclusive: 29.1 µM [inhibitor, single point] | – |
| O=C1C=CC(=O)N1c1ccc2c(c1)Cc1cc(F)ccc1-2 | active: 1.64 µM | – |
| CN(CC(=O)Nc1ccc(N2CCOCC2)cc1)Cc1cc(=O)n2ccsc2n1 | active: 18.4 µM | – |
| CCOc1ccc(CNCc2c(C(=O)O)c(C)n(Cc3ccc(F)cc3Cl)c2C)cc1 | inconclusive: 25.9 µM [inhibitor, single point] | – |

| SMILES | Potency | activity change, negative = growth inhibition |
| --- | --- | --- |
| Cc1ccc(F)c(CNC(=O)C2CCC(=O)N(Cc3ccccn3)C2)c1F (centres undefined) | inconclusive: 29.1 µM [inhibitor, single point] | – |
| O=C(C[n+]1ccc(C(=O)c2ccccc2)cc1)Nc1ccc(C(F)(F)F)cc1 | active: 23.1 µM | – |
| COc1cccc(CNC(=O)CN2C(=O)c3ccccc3S2(=O)=O)c1 | – | inactive: -38.4% |
| Cc1cc(C(=O)Nc2ccc(S(=O)(=O)N3CCOCC3)cc2)ccc1[N+](=O)[O-] | inconclusive: 29.1 µM [inhibitor, single point] | – |
| CCCCc1nn2c(=O)cc(COC(=O)c3cccc(NC(=O)c4cccc(C)c4)c3)nc2s1 | – | inactive: 8.56% |
| CCCCNC(=O)CSc1nc(Cc2ccccc2)nc2ccccc12 | inconclusive: 29.1 µM [inhibitor, single point] | – |
| CNc1ccc(/C=C2\C=Cc3ccccc32)cc1I | inconclusive: 35.5 µM [inhibitor, single point] | – |
| CCCc1cc(N2CCN(C(=O)c3ccco3)CC2)n2c(nc3ccccc32)c1C#N | inconclusive: 29.1 µM [inhibitor, single point] | – |
| O=S1(=O)C[C@@H](N2CC[C@@H](O)C2)[C@H](COCc2ccccc2)N1 | – | inactive: -10.4% |
| O=C(O)c1cc(O)c2c(c1)[C@@H]([C@H]1c3cc(C(=O)O)cc(O)c3C(=O)c3c(O[C@@H]4O[C@H](CO)[C@@H](O)[C@H](O)[C@H]4O)cccc31)c1cccc(O[C@@H]3O[C@H](CO)[C@@H](O)[C@H](O)[C@H]3O)c1C2=O | active: 6.51 µM | – |
| CCc1ccc2c(c1)NC(=O)C2(C)Cc1ccc(C(F)(F)F)nc1 (centres undefined) | inconclusive: 29.1 µM [inhibitor, single point] | – |
| C=C(C)CN(CC)c1ccc(N2C(=O)CCCC2=O)cc1[N+](=O)[O-] | – | inactive: -10.8% |
| CCOC(=O)c1c(S(=O)(=O)NCC(=O)Nc2ccc(Cl)c(C(F)(F)F)c2)c(C)n(C)c1C | active: 18.4 µM | – |
| S=C1NC[C@H](Cc2ccccc2)N1CC1CCN(CCCC2CCCC2)CC1 | inconclusive: 29.1 µM [inhibitor, single point] | – |
| CC(=O)c1cccc(NC(=O)COc2ccc(S(=O)(=O)N3CCCCC3)cc2)c1 | inconclusive: 32.6 µM [inhibitor, single point] | – |
| O=C(NCc1ccccn1)c1nc(Cn2cc([N+](=O)[O-])cn2)no1 | – | inactive: 1.79% |
| Cc1ccc(CN2CCCn3nc(C(=O)NCc4ccccc4Cl)cc3C2=O)cc1 | inconclusive: 25.9 µM [inhibitor, single point] | – |
| O=C(Nc1ccc(F)cc1)N1CCCCCC1 | – | inconclusive: -31.6% [inhibitor] |
| COc1ccc(C(=O)C[C@@H]2OC[C@H](C(C)C)N2S(=O)(=O)c2ccc(C)cc2)cc1OC | inconclusive: 25.9 µM [inhibitor, single point] | – |
| CC(C)Cn1c(N)c(C(=O)CSc2ncn[nH]2)c(=O)n(C)c1=O | – | inactive: -28.4% |
| Cc1c(NC(=O)c2ccc3c4c(cccc24)CC3)c(=O)n(-c2ccccc2)n1C | inconclusive: 0.058 µM [inhibitor, full curve, poor fit] | – |
| C=CCn1cc(Cl)cc(C(=O)Nc2ccccc2)c1=O | – | inactive: 17.1% |
| O=c1c2cn[nH]c2nc(SCc2cc(=O)n3cc(Br)ccc3n2)n1-c1ccc(Br)cc1 | inconclusive: 29.1 µM [inhibitor, single point] | – |
